Inconclusive results, whose numbers are uncertain, are shown with a selection of clear calls. For part of these data: Potencies of inconclusive entries are left out as doubtful fits. Activity calls are given as the source filed them. Unless noted, calls come from the whole dose curve.
Experiments:
[1] = biological target: Peroxisome proliferator-activated receptor gamma (Homo sapiens) (UniProt P37231); assay: qHTS assay to identify small molecule antagonists of the peroxisome proliferator-activated receptor gamma (PPARg) signaling pathway (AID 743191); conditions: HEK293H PPARg-UAS-bla, beta-lactamase ratio, antagonist, 17 h; ratio activity, negative = inhibition: at 62.6 µM (top of the series) unless noted; note: nearly all actives have a fitted effect of over 30% in size
How it was run: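 GeneBLAzer PPARg UAS-bla HEK293H cells, 5 h post-plating, exposed to compounds 17 h at 37C. LiveBLAzer B/G FRET substrate added for 1 h at room temperature; beta-lactamase reporter read by fluorescence intensity.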

[2] = qHTS assay for small molecule agonists of the antioxidant response element (ARE) signaling pathway - cell viability counter screen (AID 743203); conditions: ARE-bla HepG2 viability, CellTiter-Glo luminescence, 16 h; viability change, negative = cytotoxic: at 73.3 µM (top of the series); note: nearly all actives have a fitted effect of over 55% in size
How it was run: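 ATP content via CellTiter-Glo luminescence served as the viability measure. Cells: ARE-bla HepG2, 2,000 per well. Exposure: 16 hrs, 37C/5% CO2.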

[3] = qHTS assay to identify small molecule agonists of the farnesoid-X-receptor (FXR) signaling pathway - cell viability counter screen (AID 743218; active = well fitted curve in the direction sought with a large enough effect in the repeat runs; inconclusive = weak or mixed curves; inactive = no such curve, though single readings can be large; an effect the other way counts as inactive or inconclusive; note: nearly all actives have a fitted effect of over 45% in size; note: potency is the fitted concentration of half-maximal effect); conditions: FXR-bla HEK293T viability, CellTiter-Glo luminescence, 16 h; viability change, negative = cytotoxic: at 62.6 µM (top of the series) unless noted
How it was run: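 Quantitative HTS counter screen measuring ATP-based viability via CellTiter-Glo luminescence in HEK 293T cells carrying a UAS-driven beta-lactamase reporter, after 16 h compound exposure at 37 C.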

[4] = qHTS assay to identify small molecule antagonists of the farnesoid-X-receptor (FXR) signaling pathway - cell viability counter screen (AID 743221; active = well fitted cell-killing curve with a large enough effect in the repeat runs, not every such curve was filed as active; inconclusive = weak or mixed curves, or effect the other way; inactive = no such curve, though single readings can be large or run the other way; note: nearly all actives have a fitted effect of over 50% in size); conditions: FXR-bla HEK293T viability, CellTiter-Glo luminescence, 16 h; activity change, negative = cytotoxicity: at 62.6 µM (top of the series)
How it was run: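 FXR-UAS-bla HEK 293T cells were treated with test compounds plus chenodeoxycholic acid (50 uM final) for 16 h at 37 C. Cell viability in the same wells was then read as CellTiter-Glo luminescence after 30 min at room temperature.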

[5] = qHTS assay for small molecule activators of the heat shock response signaling pathway - cell viability counter screen (AID 743209; active = well fitted curve in the direction sought with a large enough effect in the repeat runs; inconclusive = weak or mixed curves; inactive = no such curve, though single readings can be large; an effect the other way counts as inactive or inconclusive; note: nearly all actives have a fitted effect of over 50% in size; note: potency is the fitted concentration of half-maximal effect); conditions: HSE-bla HeLa viability, CellTiter-Glo luminescence, 5 h; activity change, negative = cytotoxicity: at 62.6 µM (top of the series)
How it was run: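 Compounds dissolved in DMSO were added to overnight-plated HSE-bla HeLa cells and left 5 h at 37 C. Cell viability was quantified by luminescence using CellTiter-Glo.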

[6] = biological target: Peroxisome proliferator-activated receptor delta (Homo sapiens) (UniProt Q03181); assay: qHTS assay to identify small molecule agonists of the peroxisome proliferator-activated receptor delta (PPARd) signaling pathway (AID 743212); conditions: HEK293H PPARd-UAS-bla, beta-lactamase FRET ratio, 17 h; activation: at 62.6 µM (top of the series) unless noted; note: potency is the fitted concentration of half-maximal effect
How it was run: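 Tox21 library screened in GeneBLAzer PPARd UAS-bla HEK293H cells. After compound treatment at 37 C, a FRET-based beta-lactamase substrate was applied for 2 h and fluorescence recorded.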

[7] = qHTS assay to identify small molecule antagonists of the peroxisome proliferator-activated receptor delta (PPARd) signaling pathway - cell viability counter screen (AID 743213; active = well fitted curve in the direction sought with a large enough effect in the repeat runs; inconclusive = weak or mixed curves; inactive = no such curve, though single readings can be large; an effect the other way counts as inactive or inconclusive; note: nearly all actives have a fitted effect of over 50% in size; note: potency is the fitted concentration of half-maximal effect); conditions: PPARd-bla HEK293H viability, CellTiter-Glo luminescence, 17 h; viability change, negative = cytotoxic: at 62 µM (top of the series) unless noted
How it was run: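 Viability counter-screen, qHTS format: PPARd-bla HEK293H, L165041 300 nM final, 17 h compound exposure at 37 C, CellTiter-Glo luminescence after 30 min RT.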

[8] = biological target: Peroxisome proliferator-activated receptor delta (Homo sapiens) (UniProt Q03181); assay: qHTS assay to identify small molecule antagonists of the peroxisome proliferator-activated receptor delta (PPARd) signaling pathway (AID 743215; active = well fitted inhibition curve with a large enough effect in the signal ratio in the repeat runs, not every such curve was filed as active; inconclusive = weak or mixed curves, or effect the other way; inactive = no such curve, though single readings can be large or run the other way; the % refers to the signal ratio;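 note: cells stimulated with agonist L165041 at 300 nM final during compound exposure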; note: potency is the fitted concentration of half-maximal effect); conditions: HEK293H PPARd-UAS-bla, beta-lactamase FRET ratio, antagonist, 17 h; ratio activity, negative = inhibition: at 62 µM (top of the series) unless noted
How it was run: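 Here, a reporter line (HEK293H, beta-lactamase under a UAS) measures PPARd signaling. Compounds are tested against agonist L165041 at 300 nM final concentration over 17 h at 37 C, with fluorescence read after substrate.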

[9] = biological target: Bile acid receptor (Homo sapiens) (UniProt Q96RI1); assay: qHTS assay to identify small molecule antagonists of the farnesoid-X-receptor (FXR) signaling pathway (AID 743217; active = well fitted inhibition curve with a large enough effect in the signal ratio in the repeat runs, not every such curve was filed as active; inconclusive = weak or mixed curves, or effect the other way; inactive = no such curve, though single readings can be large or run the other way; the % refers to the signal ratio); conditions: HEK293T FXR-UAS-bla, beta-lactamase ratio, CDCA-stimulated, 16 h; activity change, negative = inhibition: at 62.6 µM (top of the series) unless noted
How it was run: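 Test compounds are pin-transferred onto FXR-bla HEK 293T cells, then chenodeoxycholic acid is added at 50 uM final. After 16 h at 37 °C, LiveBLAzer B/G substrate is applied for 2 h at room temperature and fluorescence read.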

[10] = biological target: Bile acid receptor (Homo sapiens) (UniProt Q96RI1); assay: qHTS assay to identify small molecule agonists of the farnesoid-X-receptor (FXR) signaling pathway (AID 743220; active = well fitted activation curve with a large enough effect in the signal ratio in the repeat runs, not every such curve was filed as active; inconclusive = weak or mixed curves, or effect the other way; the % refers to the signal ratio; note: potency is the fitted concentration of half-maximal effect); conditions: HEK293T FXR-UAS-bla, beta-lactamase FRET ratio, 16 h; activation: at 62.6 µM (top of the series) unless noted
How it was run: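 FXR-UAS-bla HEK 293T cells carrying a UAS-driven beta-lactamase reporter were plated for 5 h at 37C/5% CO2, then exposed to DMSO-dissolved Tox21 10K compounds for 16 h at 37C. A LiveBLAzer B/G FRET substrate was loaded for 2 h at room temperature before fluorescence reading.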

[11] = qHTS assay for small molecule activators of the heat shock response signaling pathway (AID 743210; active = well fitted activation curve with a large enough effect in the signal ratio in the repeat runs, with a control signal flat, not every such curve was filed as active; inconclusive = weak or mixed curves; the % refers to the signal ratio; note: potency is the fitted concentration of half-maximal effect;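 for activation: HeLa cells with beta-lactamase reporter driven by heat shock elements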); conditions: HeLa HSE-bla reporter, beta-lactamase ratio, 5 h; activation: at 62.6 µM (top of the series)
How it was run: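 Following overnight attachment, HSE-bla HeLa cells received test compounds for 5 h at 37 C; beta-lactamase activity was then detected via FRET substrate fluorescence.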

[12] = qHTS assay to identify small molecule agonists of the peroxisome proliferator-activated receptor delta (PPARd) signaling pathway - cell viability counter screen (AID 743211; active = well fitted curve in the direction sought with a large enough effect in the repeat runs; inconclusive = weak or mixed curves; inactive = no such curve, though single readings can be large; an effect the other way counts as inactive or inconclusive; note: nearly all actives have a fitted effect of over 55% in size; note: potency is the fitted concentration of half-maximal effect); conditions: PPARd-bla HEK293H viability, CellTiter-Glo luminescence, 17 h; activity change, negative = cytotoxicity: at 62.6 µM (top of the series)
How it was run: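 PPARd-bla HEK293H cells (UAS-beta-lactamase reporter) were treated with compounds for 17 h at 37 C. Viability was then read in the same wells by CellTiter-Glo luminescence after 30 min at room temperature.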

[13] = biological target: Vitamin D3 receptor (Homo sapiens) (UniProt P11473); assay: qHTS assay to identify small molecule antagonists of the vitamin D receptor (VDR) signaling pathway (AID 743223; active = well fitted inhibition curve with a large enough effect in the signal ratio in the repeat runs, not every such curve was filed as active; inconclusive = weak or mixed curves, or effect the other way; inactive = no such curve, though single readings can be large or run the other way; the % refers to the signal ratio); conditions: VDR-UAS-bla HEK293T, beta-lactamase FRET ratio, 16 h; activity change, negative = inhibition: at 61 µM (top of the series) unless noted
How it was run: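 VDR-bla cells were plated, incubated 4 h at 37C, then given compound and 1alpha,25-dihydroxyvitamin D3 (3 nM final). After 16 h at 37C, LiveBLAzer B/G FRET substrate was added for 2 h at room temperature and fluorescence read.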
% is set by controls: 0 for no effect and ±100 for the full control effect; tags give direction and shape of the fitted curve or compound fluorescence and quenching.

Sequence of UniProt Q03181 (Q03181 whole entry, looked up): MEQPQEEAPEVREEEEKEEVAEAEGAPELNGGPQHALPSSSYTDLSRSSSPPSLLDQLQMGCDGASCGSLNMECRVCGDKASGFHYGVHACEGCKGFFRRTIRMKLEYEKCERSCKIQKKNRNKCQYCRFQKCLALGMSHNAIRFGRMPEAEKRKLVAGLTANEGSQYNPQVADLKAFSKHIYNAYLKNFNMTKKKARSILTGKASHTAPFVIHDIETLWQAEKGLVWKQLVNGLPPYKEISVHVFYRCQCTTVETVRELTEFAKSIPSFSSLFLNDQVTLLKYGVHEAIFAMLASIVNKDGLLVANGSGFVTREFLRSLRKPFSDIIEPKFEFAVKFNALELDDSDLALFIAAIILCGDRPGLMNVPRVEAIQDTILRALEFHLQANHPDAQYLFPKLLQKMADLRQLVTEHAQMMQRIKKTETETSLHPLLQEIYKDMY
Sequence of UniProt P37231 (P37231 whole entry, looked up): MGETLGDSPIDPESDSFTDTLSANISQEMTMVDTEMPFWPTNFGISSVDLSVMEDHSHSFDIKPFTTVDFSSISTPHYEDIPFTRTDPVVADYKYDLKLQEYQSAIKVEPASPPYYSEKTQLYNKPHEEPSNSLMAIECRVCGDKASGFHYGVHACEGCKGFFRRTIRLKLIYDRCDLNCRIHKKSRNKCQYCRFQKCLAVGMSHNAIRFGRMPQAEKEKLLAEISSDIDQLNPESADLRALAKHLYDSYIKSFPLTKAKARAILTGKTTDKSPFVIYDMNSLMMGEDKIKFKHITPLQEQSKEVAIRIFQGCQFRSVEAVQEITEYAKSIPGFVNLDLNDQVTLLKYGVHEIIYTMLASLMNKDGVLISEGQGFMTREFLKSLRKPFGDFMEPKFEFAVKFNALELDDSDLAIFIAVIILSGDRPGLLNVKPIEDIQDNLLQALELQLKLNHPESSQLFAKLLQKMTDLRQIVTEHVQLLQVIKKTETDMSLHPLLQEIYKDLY
Sequence of UniProt Q96RI1 (Q96RI1 whole entry, looked up): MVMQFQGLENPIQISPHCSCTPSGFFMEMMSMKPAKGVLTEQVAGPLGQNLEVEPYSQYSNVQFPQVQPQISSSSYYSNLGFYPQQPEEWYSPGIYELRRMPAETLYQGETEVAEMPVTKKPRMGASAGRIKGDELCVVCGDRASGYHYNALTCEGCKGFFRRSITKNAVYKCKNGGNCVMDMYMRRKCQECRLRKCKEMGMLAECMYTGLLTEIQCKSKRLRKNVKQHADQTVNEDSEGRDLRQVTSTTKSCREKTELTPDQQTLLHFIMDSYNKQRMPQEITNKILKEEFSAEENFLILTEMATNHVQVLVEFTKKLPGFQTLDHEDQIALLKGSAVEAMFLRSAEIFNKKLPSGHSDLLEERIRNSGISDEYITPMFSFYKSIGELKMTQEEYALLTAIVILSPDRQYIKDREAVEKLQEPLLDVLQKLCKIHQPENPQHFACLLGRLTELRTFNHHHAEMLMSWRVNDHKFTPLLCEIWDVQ
Sequence of UniProt P11473 (P11473 whole entry, looked up): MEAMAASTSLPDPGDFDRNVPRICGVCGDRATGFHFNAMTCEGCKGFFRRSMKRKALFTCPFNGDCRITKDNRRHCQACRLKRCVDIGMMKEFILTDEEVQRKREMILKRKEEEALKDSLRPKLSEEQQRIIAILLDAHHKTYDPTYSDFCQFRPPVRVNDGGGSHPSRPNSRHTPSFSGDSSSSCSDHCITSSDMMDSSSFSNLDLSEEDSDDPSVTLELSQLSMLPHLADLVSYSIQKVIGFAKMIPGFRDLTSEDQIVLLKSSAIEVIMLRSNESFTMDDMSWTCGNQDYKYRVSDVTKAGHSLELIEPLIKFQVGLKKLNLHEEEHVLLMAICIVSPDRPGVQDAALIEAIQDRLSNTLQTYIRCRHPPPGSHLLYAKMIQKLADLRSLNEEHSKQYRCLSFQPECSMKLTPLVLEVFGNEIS

Question: For `CCCCOC(=O)C(=O)OCCCC`, which Potency [1] is on record?
Answer: inactive

Question: What about the Potency [2] of the same compound?
Answer: inactive

Question: What about the Potency [3] of the same compound?
Answer: inactive

Question: What about the Potency [4] of the same compound?
Answer: inactive

Question: For `CCN(CC)CCNC(=O)c1cc(S(C)(=O)=O)ccc1OC`, which Potency [1] is on record?
Answer: inactive

Question: And the activity change, negative = cytotoxicity [5]?
Answer: inconclusive: -30.3% [cytotoxic]

Question: Which results are given for `C[C@@H]1C[C@H]2O[C@@]3(O[C@@H]2C(C)(C)O)[C@H](O)[C@@]2(C)[C@@H]4CC[C@H]5C(C)(C)[C@@H](O[C@@H]6OC[C@@H](O)[C@H](O)[C@H]6O)CC[C@@]56C[C@@]46CC[C@]2(C)[C@@H]13`?
Answer: ratio activity, negative = inhibition [1]: inconclusive: 18.9%; Potency [6]: inconclusive [rising, full curve, poor fit]; Potency [7]: inactive; ratio activity, negative = inhibition [8]: inconclusive: 3.09%; activity change, negative = inhibition [9]: inconclusive: 9.1%; Potency [10]: inconclusive [activator, full curve]

Question: For `CCCOC(C)=O`, which Potency [1] is on record?
Answer: inactive

Question: What about the Potency [6] of the same compound?
Answer: inactive

Question: And the Potency [7]?
Answer: inconclusive [cytotoxic, single point]

Question: What does the source list for `C[C@@H]1CC[C@H]2C(C)(C)[C@H]3C[C@@]12CC[C@@]3(C)O`?
Answer: ratio activity, negative = inhibition [1]: inconclusive: -3.23%; Potency [5]: inconclusive [cytotoxic, single point]; Potency [11]: inconclusive; Potency [12]: inconclusive [cytotoxic, single point]; Potency [6]: inactive; Potency [3]: inconclusive [cytotoxic]

Question: For `OCCN(CCO)c1ccccc1`, which ratio activity, negative = inhibition [1] is on record?
Answer: inconclusive: 2.46%

Question: What about the Potency [12] of the same compound?
Answer: inactive

Question: What about the Potency [3] of the same compound?
Answer: inactive

Question: And the Potency [10]?
Answer: inactive

Question: With `NS(=O)(=O)c1ccc(N2CCCCS2(=O)=O)cc1` as the compound, how does the ratio activity, negative = inhibition [1] read?
Answer: inconclusive: 2.49%

Question: And the Potency [5]?
Answer: inconclusive [cytotoxic, full curve, poor fit]

Question: Which results are given for `COc1ccccc1OCC1CNC(=O)O1` (centres undefined)?
Answer: ratio activity, negative = inhibition [1]: inconclusive: 7.86%; Potency [11]: inactive; Potency [13]: inactive

Question: What does the source list for `C[C@]12CCC(=O)C=C1CC[C@@H]1[C@@H]2[C@@H](O)C[C@@]2(C)[C@H]1CC[C@]2(O)C(=O)COC(=O)CCC(=O)O`?
Answer: ratio activity, negative = inhibition [1]: inconclusive: 3.85%; Potency [5]: inactive

Question: Which ratio activity, negative = inhibition [1] does the source give for `Cc1c(C)c2c(c(C)c1OC(=O)c1cccnc1)CC[C@@](C)(CCC[C@H](C)CCC[C@H](C)CCCC(C)C)O2` here?
Answer: inconclusive: -14.7%

Question: What about the Potency [11] of the same compound?
Answer: inactive

Question: Which results are given for `CCCCCC[C@@H](O)C/C=C\CCCCCCCC(=O)OCC(O)CO` (some centres undefined)?
Answer: Potency [1]: inactive; Potency [6]: active: 49 µM; Potency [8]: inconclusive [fluorescent, partial curve, poor fit]

Question: Which results are given for `COc1ccc(COC=O)cc1`?
Answer: ratio activity, negative = inhibition [1]: inconclusive: 20.1%; Potency [2]: inactive
